The campaign covered roughly 46,000 compounds. About 60 (0.1%) were called active. Not shown: some 3% with an inconclusive outcome. Calls come from the whole dose curve; as a rule, active = well fitted inhibition curve with a large enough effect; inconclusive = small, poorly fitted or top-dose-only effect; inactive = no such curve, though single readings can be large or run the other way. The list shows a part of the results.
Experiment: Primary qHTS assay for Inhibitors of ovarian cancer metastasis using an organotypic tumor microenvironment (TME) model.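 For Potency: count of GFP cancer cells still attached after washing and fixation.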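 For activity change, negative = inhibition: plate controls were DMSO wells for no effect and tomatine positive control wells for full effect.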 Note: nearly all actives have a fitted effect of over 65% in size.
Settings: SKOV3ip1-GFP adhesion/invasion on 3D omental model, fluorescence; series mostly up to 45.8 µM; activity change, negative = inhibition: at the top concentration
Outline: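 A 3D layer of primary human omental fibroblasts, mesothelial cells, fibronectin and collagen I, grown 48 hr, received SKOV3ip1-GFP cells in serum-free medium plus compounds at 0.36-46 umol/L. After 2 hr RT and 16 hr 37 C, fixed adherent GFP cells were counted; normalized to DMSO and tomatine.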
Potency is the fitted concentration of half-maximal effect.

SMILES | outcome | activity change, negative = inhibition | Potency
CCOC(=O)c1cc(-c2ccccc2)n(CCC(=O)NCCc2ccc(C)cc2)c1C | inactive | – | –
COc1ccc(-n2nc(C(=O)N3CCCCC3)c3c4ccccc4n(C)c3c2=O)cc1Cl | – | inactive: -13.9% | –
Cc1ccc(S(=O)(=O)c2nnn(CC(=O)Nc3ccccc3C)c2N)cc1 | – | inactive: -28.6% | –
Cc1cc(C)c(Cn2c(=O)n(Cc3ccccc3)c(=O)c3c(C)c(C)sc32)c(C)c1 | – | inactive: -1.27% | –
O=C(Nc1cccc(C(F)(F)F)c1)c1cc2nc(-c3ccco3)cc(C(F)(F)Cl)n2n1 | – | inactive: 50.5% | –
O=C(CSc1nccn1Cc1ccccc1)Nc1nc2ccccc2s1 | inactive | – | –
O=C(CN1C(=O)COc2ccc(S(=O)(=O)NC3CCCC3)cc21)NCc1ccccc1Cl | inactive | – | –
COc1cc(Nc2nc3ccc(Cl)cc3nc2-n2nc(C)cc2C)cc(OC)c1 | – | inactive: -9.01% | –
CCOC(=O)c1cccc(NC(=O)c2cc(C)nc3c2c(C)nn3-c2ccc(C)cc2)c1 | – | inactive: 3.49% | –
CCOC(=O)c1ccc(NC(=O)C2=C(C)C(=O)OC23CCN(C(C)=O)CC3)cc1 | – | inactive: -6.15% | –
Cc1ccc(Cl)cc1NC(=O)CCn1cnc2ccccc2c1=O | – | inactive: -0.968% | –
Cc1cc(C)cc(NC(=O)C(=O)NCC(c2cccnc2)N2CCOCC2)c1 (stereo unspecified) | – | inactive: -4.08% | –
CCc1cccc(C)c1NC(=O)CSc1n[nH]c(-c2ccccc2)n1 | – | inactive: -2.42% | –
Cn1ncc2c(Nc3cccc(C#N)c3)ncnc21 | – | inactive: -1.53% | –
CCN(CCO)CCCC(C)Nc1ccnc2cc(Cl)ccc12 (stereo unspecified) | – | inactive: -15.6% | –
COc1ccc(Cl)cc1NC(=O)Cn1c(=O)n(Cc2ccc(F)cc2)c(=O)c2cccnc21 | – | inactive: 0.842% | –
Cc1ccc(NC(=O)Cn2c(=O)n(CCC(C)C)c(=O)c3cccnc32)cc1C | inactive | – | –
CCC(C(=O)NCCC(C)C)N(C(=O)Cn1nnc(-c2ccc(C)cc2)n1)c1cccc(O)c1 (stereo unspecified) | inactive | – | –
CC(=O)OCC(=O)[C@@]1(O)CC[C@H]2[C@@H]3CCC4=CC(=O)CC[C@]4(C)[C@@H]3C(=O)C[C@@]21C | – | inactive: -2.71% | –
Cc1ccccc1OCCSc1nnc(-c2cccs2)o1 | – | inactive: -3.12% | –
CCOc1ccc(NC(=O)C(C)n2c(=O)cc(-c3ccccc3)c3c(C)nn(C)c32)cc1 (stereo unspecified) | – | inactive: 6.25% | –
COc1ccccc1N1CCN(C(=O)Cn2c(=O)nc(-c3ccccc3)c3ccccc32)CC1 | – | inactive: 15.5% | –
CC1CN(C(=O)N2CCC(C(=O)NCc3ccccc3F)CC2)c2cc(Cl)ccc2O1 (stereo unspecified) | inactive | – | –
O=C(Nc1ccc(F)c(F)c1)C(c1ccccc1)N1Cc2ccccc2C1=O (stereo unspecified) | – | inactive: -10.3% | –

SMILES | outcome | activity change, negative = inhibition | Potency
O=C(NCc1ccccc1Cl)c1ccc2c(c1)NC(=O)C(CS(=O)(=O)Cc1ccc(Cl)cc1)N2 (stereo unspecified) | – | inactive: 2.34% | –
COc1ccccc1-c1nn(CCC(=O)Nc2ccccc2)c2nc(C)cc(C)c12 | inactive | – | –
COc1ccc(CCNC(=O)CN(c2ccccc2)S(=O)(=O)N(C)C)cc1 | inactive | – | –
Cc1ccc2nc(-c3ccc(C)s3)c(Nc3ccc4c(c3)OCCO4)n2c1 | inactive | – | –
CCOC(=O)c1c(C)[nH]c(C)c1S(=O)(=O)N1CCCC(C(=O)N2CCN(c3cccc(Cl)c3)CC2)C1 (stereo unspecified) | – | inactive: 3.79% | –
Cc1nn(C(C)C(=O)NCc2ccco2)c(=O)c2nn(-c3ccccc3)c(C)c12 (stereo unspecified) | – | inactive: 4.44% | –
Cc1ccc2[nH]cc(C(c3ccccc3)c3ccc(Cl)s3)c2c1 (stereo unspecified) | – | inactive: -7.51% | –
COc1ccccc1OCC(=O)NCCS(=O)(=O)N1CCN(c2ccccc2OC)CC1 | – | inactive: -7.8% | –
Cc1cccc2sc(N(Cc3cccnc3)C(=O)c3ccco3)nc12 | – | inactive: -0.613% | –
CCOc1ccccc1NC(=O)Cn1c(=O)n(CCCC(=O)NCc2ccc(C)cc2)c(=O)c2ccccc21 | inactive | – | –
Cc1ccc(C(=O)N2CCN(CCc3ccncc3)CC2)cc1 | – | inactive: -4.74% | –
CCN(CC)CCNC(=O)c1cc2c(-c3cccc(OC)c3)nn(C)c2s1 | – | inactive: -1.5% | –
CCN1CCN(Cc2ccc(-c3cc4c(N[C@H](C)c5ccccc5)ncnc4[nH]3)cc2)CC1 | – | inactive: 2.87% | –
COc1ccc(-c2nc(S(=O)(=O)c3ccccc3)c(N3CCC(C)CC3)o2)cc1 | – | inactive: -3.6% | –
COc1ccc(NC(=O)C(NS(=O)(=O)c2cccc3nsnc23)C(C)C)cc1OC (stereo unspecified) | – | inactive: -6.65% | –
CN1C(=O)c2ccccc2Sc2ccc(NC(=O)N3CCN(c4ccc(F)cc4)CC3)cc21 | – | inactive: -10.5% | –
COc1ccc(S(=O)(=O)Nc2cccc(-c3ccc(N4CCCCC4)nn3)c2)cc1F | – | inactive: -10.5% | –
CCOC(=O)c1c(CSc2ccccc2)n(C)c2cc(Br)c(O)c(CN(C)C)c12 | – | inactive: -0.11% | –
CSc1ccc(CCNC(=O)CN2C(=O)COc3ccc(S(=O)(=O)N4CCCCCC4)cc32)cc1 | inactive | – | –
Cc1ccc(Cl)cc1-n1c(SCC(=O)NCc2ccccc2)nc2n[nH]c(C)c2c1=N | – | inactive: 0.524% | –
COc1ccc(C(=O)NCCc2csc(-c3ccc(Cl)cc3)n2)c(OC)c1 | – | inactive: 6.37% | –
Oc1ccc(NCc2ccccc2OCc2ccccc2)cc1 | – | inactive: 5.26% | –
O=C1c2ccccc2-[n+]2ccc3c([nH]c4ccccc43)c21 | – | – | active: 2350 nM
Cc1ccn(-c2ccc(-c3ncco3)cc2)c(=O)c1-c1ccc2nc(N)ncc2c1 | – | inactive: -17.7% | –

SMILES | outcome | activity change, negative = inhibition | Potency
CCOc1ccc(CNC(=O)c2cc3cc(S(=O)(=O)N4CCCCC4)ccc3n2C)cc1 | inactive | – | –
Cc1cc(C)c(NC(=O)CSC2=Nc3ccccc3C3=NC(CC(=O)NCc4cccs4)C(=O)N23)c(C)c1 (stereo unspecified) | – | inactive: 1.56% | –
CCN1CCc2nc3sc(C(=O)Nc4ccccc4OC(F)(F)F)c(N)c3cc2C1 | – | inactive: -23% | –
CCOC(=O)N1CCN(S(=O)(=O)N2CCCC(C(=O)NCc3cc(Br)ccc3OC)C2)CC1 (stereo unspecified) | – | inactive: 7.76% | –
Cc1cc(=O)c2cc(C(=O)Nc3ccc(F)cc3)ccc2[nH]1 | – | inactive: 18.3% | –
CC(C)c1ccc2c(c1)c(SC(C)(C)C)c(CC(C)(C)C(=O)O)n2Cc1ccc(Cl)cc1 | – | inactive: -15.6% | –
Cc1ccc(NC(=O)N2CCN(Cc3nc4ccc(C)cc4o3)CC2)cc1 | inactive | – | –
CC(=O)Nc1c(C)nn(-c2ccccc2)c1N1CCC(C(=O)Nc2ccccc2C(F)(F)F)CC1 | – | inactive: -4.79% | –
O=C(CN1c2ccc(Br)cc2-c2ccccc2S1(=O)=O)N1CCCCC1 | – | inactive: -4.26% | –
COc1cccc(Nc2nc3c(S(=O)(=O)c4cc(C)ccc4C)nnn3c3ccsc23)c1 | – | inactive: 17.5% | –
CCOc1ccc(Nc2oc(/C=C/c3ccc(OC)c(OC)c3)nc2C#N)cc1 | – | inactive: -25.8% | –
Cc1cccn2c(=O)c(C(=O)NC(C)c3ccccc3)c(O)nc12 (stereo unspecified) | – | inactive: -1.43% | –
COc1ccc2c(C)c(CCC(=O)NCc3ccccc3OC)c(=O)oc2c1 | – | inactive: -6.33% | –
COc1ccc(C)cc1-n1nnc(S(=O)(=O)c2ccc(C)cc2)c1C | – | inactive: 4.89% | –
COc1ccc(CNc2oc(/C=C/c3cc(OC)c(OC)c(OC)c3)nc2C#N)cc1 | inactive | – | –
O=C(Cn1c(-c2cccs2)cc2cc(F)ccc21)N1CCN(c2ccccc2)CC1 | – | inactive: -11.3% | –
CCOCCCNC(=O)C(=O)Nc1c2c(nn1-c1ccccc1)CSC2 | – | inactive: 7.96% | –
O=C(COc1ccc(Cl)cc1)NCC(c1ccco1)S(=O)(=O)c1ccc(F)cc1 (stereo unspecified) | – | inactive: 6.25% | –
CC(=O)c1ccc(NC(=O)c2cc3sccc3n2Cc2ccc(Cl)cc2)cc1 | – | inactive: 6.15% | –
CCN(CC)S(=O)(=O)c1ccc(C(=O)NC2CC(=O)N(c3ccc(OC)c(OC)c3)C2)cc1 (stereo unspecified) | inactive | – | –
O=C(c1ccccc1Cl)N1CCC(c2nc3ccccc3s2)CC1 | – | inactive: 0.687% | –
COc1ccc(Cl)cc1NC(=O)Cn1nc(C(F)(F)F)c2c1CCCC2 | inactive | – | –
COCCCn1c(SCC(=O)Nc2ccc(F)cc2)nc2c(sc3ccccc32)c1=O | – | inactive: -3.53% | –
Cc1cccc(NC(=O)C2CCCN(S(=O)(=O)c3ccc4c(c3)CCCC(=O)N4)C2)c1 (stereo unspecified) | inactive | – | –

SMILES | outcome | activity change, negative = inhibition | Potency
COc1ccc(CNC(=O)c2cc3cccc4c3n2CC(C)S4)cc1OC (stereo unspecified) | – | inactive: -7.35% | –
COCCCn1c(=O)c2sccc2n2c(CCCC(=O)Nc3cccc(OC)c3)nnc12 | – | inactive: -16.9% | –
Cc1ccc(CNS(=O)(=O)c2ccc3[nH]c4c(c3c2)CCCCC4)cc1 | – | inactive: 3.29% | –
CC(=O)N1CCCC1c1nc2ccccc2n1Cc1ccc(F)cc1 (stereo unspecified) | – | inactive: -9.37% | –
O=C(CO)N1CCC(c2[nH]nc(-c3ccc(Cl)cc3)c2-c2ccncn2)CC1 | – | inactive: -14.7% | –
COc1cc(NC(=O)CN2C(=O)COc3ccc(S(=O)(=O)NC4CCCC4)cc32)cc(OC)c1 | – | inactive: 7.43% | –
O=C(c1ccc2c(c1)N(Cc1c(F)cccc1Cl)C(=O)c1ccccc1S2)N1CCCC1 | inactive | – | –
CCc1ccc(NC(=O)c2ccc(Cn3nc(N4CCN(c5ccccc5)CC4)ccc3=O)o2)cc1 | – | inactive: 0.576% | –
Cc1ccc(Cl)cc1-n1ncc2c(Nc3ccc4c(c3)OCCO4)ncnc21 | – | inactive: -4.92% | –
CCCn1c2ccccc2c2cnn(CC(=O)NCCCN(CC)c3ccccc3)c(=O)c21 | – | inactive: -4.28% | –
O=C(Nc1cccc2cccnc12)c1ccc(-c2cccc(Cl)c2)o1 | inactive | – | –
COc1ccc(-c2cc3ncc(C(=O)c4cc([N+](=O)[O-])ccc4O)cn3n2)cc1 | inactive | – | –
COc1cc(NS(=O)(=O)c2c(C(=O)N3CCCCC3)c(C)n(C)c2C)cc(OC)c1OC | – | inactive: 4.44% | –
CCC(C)c1ccccc1OCC(=O)Nc1ccc(S(=O)(=O)Nc2cc(C)on2)cc1 (stereo unspecified) | – | inactive: -5.05% | –
CC1CCc2c(sc3nnn(CC(=O)Nc4c(C(C)C)cccc4C(C)C)c(=O)c23)C1 (stereo unspecified) | – | inactive: -3.95% | –
CCOC(=O)c1cc(-c2ccccc2)n(CC(=O)Nc2ccccc2OCC)c1C | – | inactive: -0.229% | –
Cn1nnnc1SCCCNCc1cc(Br)ccc1OCc1ccccc1F | – | inactive: -16.4% | –
Cc1ccc(CCNC(=O)c2ccc3c(c2)N(Cc2ccccc2F)C(=O)c2ccccc2S3=O)cc1 (stereo unspecified) | – | inactive: 37.8% | –
COc1cccc(NC(=O)CCCn2c(=O)c3cccn3c3cccnc32)c1 | inactive | – | –
O=C(Nc1sc2c(c1C(=O)NCC1CCCO1)CCC2)c1cc(=O)c2cc(Cl)ccc2o1 (stereo unspecified) | – | inactive: -4.35% | –
CCOC(=O)c1c(S(=O)(=O)NCC(=O)Nc2ccc(C(C)=O)cc2)c(C)n(C)c1C | – | inactive: 3.03% | –
O=C1C(=O)N(C2CCNCC2)CCN1Cc1ccccc1 | – | inactive: -0.819% | –
Cc1cc(Nc2nc(N[C@@H](C)c3ccc(F)cc3)c(C#N)cc2F)n[nH]1 | – | inactive: 5.8% | –
Cc1cccc(C)c1NC(=O)CCCn1c(=O)c2cccn2c2ccccc21 | – | inactive: -12.6% | –

— PubChem BioAssay AID1963576 (National Center for Advancing Translational Sciences (NCATS), 2024)
